In PubChem BioAssay AID1346428 (National Center for Advancing Translational Sciences (NCATS), 2018):
Where “and” joins values, the source holds several entries; their conditions need not be identical. Equal values may be shown once. Hit rate of the full screen: of about 48,000 compounds, about 1,200 (2.5%) were called active. Inconclusive results (about 2%) are left out.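 How the source made its calls: active means activation of at least 60% and not above a set upper limit (about 1 call in 100 departs from these limits); inconclusive means activation of 40% to 60%, or above that upper limit; inactive means activation under 40%.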 Some of the results follow.

Each molecule was assayed against Probable G-protein coupled receptor 32 (Homo sapiens) (UniProt O75388) (assay: qHTS for Agonists of Human Resolvin D1 Receptor DRV1). Conditions: CHO-K1 GPR32 beta-arrestin PathHunter luminescence, 90 min; at 76.9 µM; active compounds read high; zero percent set by DMSO-only wells.
In short: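 GPR32 activation in stably transfected CHO-K1 cells, detected as beta-arrestin recruitment by enzyme-fragment complementation. Compound exposure: 90 min, 37 °C.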
Further: 0% is about no effect.

Chain of UniProt O75388 (O75388 whole entry, looked up, the tested form may be a part): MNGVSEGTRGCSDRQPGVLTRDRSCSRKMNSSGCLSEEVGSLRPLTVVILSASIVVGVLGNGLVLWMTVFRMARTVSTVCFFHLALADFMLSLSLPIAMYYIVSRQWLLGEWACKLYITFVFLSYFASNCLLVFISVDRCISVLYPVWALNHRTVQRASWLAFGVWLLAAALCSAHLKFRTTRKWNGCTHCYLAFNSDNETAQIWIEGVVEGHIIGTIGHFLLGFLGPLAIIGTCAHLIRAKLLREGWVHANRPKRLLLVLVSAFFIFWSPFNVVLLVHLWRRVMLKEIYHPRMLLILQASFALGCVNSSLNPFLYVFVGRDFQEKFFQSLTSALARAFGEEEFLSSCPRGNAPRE

Row | SMILES | activation
1 | CC(C)Cn1cc(NC(=O)NCc2ccc(Cl)cc2)c2ccccc2c1=O | inactive: -40.3%
2 | CCC(=O)N1c2ccccc2CC1C(=O)NCCCN1CCN(c2cccc(Cl)c2)CC1 (centres undefined) | inactive: 23.9%
3 | Cc1ccc(C)c(NC(=O)CSc2nc(=O)n(CCN3CCOCC3)c3c2CCC3)c1 | inactive: -4.56%
4 | COc1cc2c(cc1OC)C(COc1ccc3c(C)cc(=O)oc3c1)N(C(=O)c1ccc(C)cc1)CC2 (centres undefined) | inactive: -9.4%
5 | COc1ccc(Br)c2c1-c1nc(NC(=O)c3ccc(F)cc3)sc1C2 | inactive: -2.62%
6 | CCOC(=O)N1CCC(NC(=O)c2ccc3c(c2)N(Cc2ccccc2)C(=O)c2ccccc2S3(=O)=O)CC1 | inactive: -28%
7 | Cc1c(C(=O)NCc2ccccc2Cl)sc2nc3n(c(=O)c12)CCCC3 | inactive: 6.5%
8 | CCOc1ccccc1CNC(=O)C(CC)n1nc(C)c2c(C)n(-c3ccccc3)nc2c1=O (centres undefined) | inactive: -15.9%
9 | O=C(Nc1ccc(Cl)cc1)c1ccc2oc(=O)n(Cc3ccccc3)c2c1 | inactive: 25.4%
10 | Cc1ccc2c(c1)C(=O)OC(C(=O)Nc1ccc(C(=O)O)cc1)C2 (centres undefined) | inactive: -13.5%
11 | COCCCNc1nc2c(c(=O)n(Cc3ccccc3)c(=O)n2C)n1C | inactive: -4.94%
12 | COc1ccc(C(=O)CN2CCN(S(=O)(=O)c3ccc(F)cc3)CC2)cc1 | inactive: -20.9%
13 | Cc1cc(NC(=O)c2ccc(F)cc2)ccc1-c1cc2ccccc2oc1=O | inactive: -2.13%
14 | Cc1ccc(Cl)cc1NC(=O)c1csnn1 | inactive: 9.51%
15 | CC(=O)OC1=C(C(C)=O)N(Cc2ccccc2)S(=O)(=O)c2ccccc21 | inactive: -10.8%
16 | CC(=O)N1CCC2(CC1)OC(=O)C(C)=C2C(=O)NCc1ccccc1Cl | inactive: 0.546%
17 | COc1ccc(-c2cn3c(n2)sc2cc(C(=O)Nc4ccc(F)cc4)ccc23)cc1 | inactive: -7.63%
18 | CCCCSc1nnc2[nH]c(=O)cc(C)n12 | inactive: 26.9%
19 | O=C(c1cc(-c2ccc(Br)cc2)n[nH]1)N1CCN(S(=O)(=O)c2ccc(Br)s2)CC1 | inactive: -5.67%
20 | CC1CCN(C(=O)CCS(=O)(=O)c2cc3c(cc2Cl)NC(=O)CO3)CC1 | inactive: -2.27%
21 | CCOC(=O)c1nnn(CC(=O)NC(=O)Nc2ccccc2F)c1C(=O)OCC | inactive: 4.89%

Row | SMILES | activation
22 | Fc1ccc(Nc2nc(SCc3cccc(F)c3)nc3ccccc23)cc1 | inactive: -8.92%
23 | Cc1cccc(CC(=O)NC2CC(=O)N(c3ccc4c(c3)OCCO4)C2)c1 (centres undefined) | inactive: 7.61%
24 | CCOc1ccc(Nc2nc(N)c(C(=O)c3ccccc3Cl)s2)cc1 | inactive: 27.4%
25 | CCN(CC)S(=O)(=O)c1ccc(NC(=O)c2nn(C)c3c2CSc2ccccc2-3)cc1 | inactive: -1.9%
26 | CCC(=O)N1CCc2cc(Br)cc(S(=O)(=O)CCC(=O)Nc3ccc(CC)cc3)c21 | inactive: 13.7%
27 | Cc1ccccc1CSc1ncc(Cl)c(C(=O)NCc2ccccc2)n1 | inactive: 0.513%
28 | CCOC(=O)c1ccc(N2C(=O)c3[nH]nc(-c4ccc(C)cc4)c3C2c2ccc(O)cc2)cc1 (centres undefined) | inactive: -0.183%
29 | COc1ccc(Nc2ncnc3c2cnn3-c2cc(Cl)ccc2C)cc1OC | inactive: 12.6%
30 | Cc1cccc(-c2nc(SCCCOc3cc(C)c(Cl)c(C)c3)n3[nH]c(=O)cc3n2)c1 | inactive: -45.5%
31 | CCOc1ccc(OCCOCCn2c(-c3ccc(Cl)cc3)nc3ccccc3c2=O)cc1 | inactive: -8.34%
32 | CCOC(=O)c1ccc(NC(=O)CCCn2nc(C)c3sc4ccccc4c3c2=O)cc1 | inactive: -13%
33 | COc1ccc2c(c1)c1c(c(=O)n(CCc3ccccc3)c(=O)n1Cc1cccc(C)c1)n2C | inactive: -9.7%
34 | CSc1ncc(C(=O)NCc2ccc(F)cc2)c(-c2ccccc2)n1 | inactive: -7.9%
35 | CCCCN(CC)CCCNC(=O)Cn1nc(CC)n2c(cc3sccc32)c1=O | inactive: -12.1%
36 | Cc1ccc(C(=O)OC2=C(C(=O)c3ccccc3)N(C)S(=O)(=O)c3ccccc32)cc1 | inactive: -34.5%
37 | COC(=O)CC(=O)CSc1nc2cc(C(=O)NC(C)C)ccc2c(=O)n1CCc1ccccc1 | inactive: 7.98%
38 | CCCc1oc2ccc(NS(=O)(=O)c3ccc(OCC)cc3)cc2c1C(=O)OCC | inactive: -31.5%
39 | O=C(Cc1ccc(-c2ccccc2)cc1)NCCS(=O)(=O)N1CCN(c2cccc(Cl)c2)CC1 | inactive: -2.97%
40 | CS(=O)(=O)c1ncc(Cl)c(C(=O)N2CCN(c3cccc(Cl)c3)CC2)n1 | inactive: -22.7%
41 | O=C(CN1C(=O)COc2ccc(S(=O)(=O)N3CCOCC3)cc21)NCc1ccc(Cl)cc1 | inactive: -13.7%
42 | CCN(C(=O)CSc1nnc(-c2cc3occc3n2C)n1-c1ccccc1C)c1ccccc1 | inactive: -4.42%

Row | SMILES | activation
43 | Cc1nc2cc(-c3ccc(Cl)cc3)nn2c(C)c1CCC(=O)N1CCN(c2ccccc2)CC1 | inactive: -0.273%
44 | Cc1oc2ncn(CC(C)C)c(=O)c2c1C(=O)NCc1cccc(Cl)c1 | inactive: -25.2%
45 | CC1c2ccccc2CN1NC(=O)c1ccc(Cl)c(S(N)(=O)=O)c1 (centres undefined) | inactive: -21.6%
46 | CCOc1ccc(Nc2sc(C(=O)c3ccc(F)cc3)c(N)c2S(=O)(=O)c2ccc(C)cc2)cc1 | inactive: -1.91%
47 | Cc1ccc(-c2onc(C)c2C)cc1S(=O)(=O)N1CCC(C)CC1 | inactive: -7.65%
48 | Cc1ccc(Cn2c(C(=O)Nc3ccc(Cl)cc3)cc3sccc32)cc1 | inactive: -4.18%
49 | CCOc1ccc(C2C(=O)N(C3CCCCC3)CC(=O)N2Cc2ccccc2OC)cc1OC (centres undefined) | inactive: -13.1%
50 | CC(C)Oc1ccc(CNC(=O)c2cc3cccc4c3n2CC(C)S4)cc1 (centres undefined) | inactive: -19.6%
51 | CCc1ccc(-c2nc3c(c(SCc4ccccc4)n2)Cc2c(CO)cnc(C)c2O3)cc1 | inactive: 8.66%
52 | COc1cc(Cl)c(C)cc1NC(=O)CNC(=O)Cn1ccc2ccccc2c1=O | inactive: 2.83%
53 | COc1ccc(Cl)cc1NC(=O)c1ccc(CN2C(=O)CCn3nc(C)cc32)cc1 | inactive: 16.8%
54 | Cc1ccc(NC(=O)Cc2ccc(NC(=O)N3CCCCc4ccccc43)cc2)cc1Cl | inactive: -24%
55 | O=C(O)/C=C/c1ccc(O)c(O)c1 | inactive: 0.615%
56 | CCN(CC)c1ccc(NC(=O)Cn2ncc3c(C)n(Cc4ccccc4F)c(C)c3c2=O)c(C)c1 | inactive: -2.79%
57 | COc1ccc(/C=C/C(=O)Nc2ccc(C)cc2)cc1 | inactive: -9.43%
58 | COc1cccc(-c2nc(S(=O)(=O)c3ccc(C)cc3)c(N3CCCCCC3)o2)c1 | inactive: -5.71%
59 | CCOC(=O)c1ccc(N2C(=O)c3n[nH]c(-c4ccco4)c3C2c2ccc(OC)cc2OC)cc1 (centres undefined) | inactive: -7.58%
60 | Cc1cccc(C)c1-n1ncc(C(=O)NCCCN2CCCCC2)c1C1CCN(C(=O)OC(C)(C)C)CC1 | inactive: -13.4%
61 | CCCCOc1ccc(C(=O)NCC(c2ccc(Cl)cc2)N2CCOCC2)cc1 (centres undefined) | inactive: -17.4%
62 | O=C(Nc1ccc(Oc2ccccc2)cc1)c1ccc(F)c(S(=O)(=O)N2CCN(c3cccc(Cl)c3)CC2)c1 | inactive: 4.95%
63 | COC(=O)c1nnn(-c2cccc(C)c2)c1N | inactive: 0.316%

Row | SMILES | activation
64 | CCOC(=O)c1ccc(NC(=O)CN(Cc2ccc(C)cc2)S(=O)(=O)c2ccc(C)cc2)cc1 | inactive: -11.4%
65 | CC(C)Oc1ccc(CNC(=O)CN2C(=O)CCn3nc(-c4cn(C)c5ccccc45)cc32)cc1 | inactive: 13.6%
66 | COc1ccc(-n2c(SCc3nc(-c4ccc(C)cc4)no3)nnc2-c2ccccc2)cc1 | inactive: -17.2%
67 | Fc1ccccc1N1CCN(Cc2nnc(-c3ccc4c(c3)OCO4)o2)CC1 | inactive: 10.5%
68 | COC(=O)c1ccc(NC(=O)CSc2n[nH]c(-c3ccccc3)n2)cc1 | inactive: -6.95%
69 | CC1CN(C(=O)Nc2ccc(C(=O)NCc3ccccc3F)cc2)c2ccccc2S1 (centres undefined) | inactive: -15.1%
70 | Cc1ccccc1OCC(=O)Nc1ccc2oc(-c3ccc(F)cc3)nc2c1 | inactive: 1.36%
71 | O=C(Nc1nc2c(Cl)cccc2s1)c1ccc(S(=O)(=O)N2CCc3ccccc32)cc1 | inactive: -18.2%
72 | Cc1ccc(C)c(N2C(=O)N(Cc3ccccc3C)c3ccccc3S2(=O)=O)c1 | inactive: -8.85%
73 | Clc1ccc(Cn2c(CN3CCCC3)nc3ccccc32)cc1 | inactive: -72.2% and inactive: -7.35%
74 | CCN(CCCNC(=O)CSc1cc(=O)n(CC)c2ccccc12)c1ccccc1 | active: 117%
75 | CCc1ccc(CNC(=O)Cn2ccc3cc(S(=O)(=O)N4CCCCCC4)ccc32)cc1 | inactive: 36.1%
76 | Oc1ccc2ccccc2c1SSc1c(O)ccc2ccccc12 | inactive: 50%
77 | O=C(NC1CCCC1)c1ccc2c(=O)n(Cc3ccccc3)c(SCc3ccc([N+](=O)[O-])cc3)nc2c1 | inactive: -12.2%
78 | CCOC(=O)N1CCN(Cc2nc3cc(NC(=O)CC)ccc3n2C(C)C)CC1 | inactive: 3.86%
79 | COc1ccc(OC)c2sc(N(Cc3cccnc3)C(C)=O)nc12 | inactive: -16.8%
80 | COc1cccc(CNC(=O)CN2C(=O)CCc3cc(S(=O)(=O)N4CCOCC4)ccc32)c1 | inactive: 0%
81 | CCc1ccc(-n2nc(CO)c(C(=O)NC(C)c3ccc(Cl)cc3)n2)cc1 (centres undefined) | inactive: -12.2%
82 | Cc1ccc(Sc2ccc(N3CCCC(C(=O)Nc4ccc(Br)cc4)C3)nn2)cc1 (centres undefined) | inactive: 16.3%
83 | O=C(NCCc1ccc(Cl)cc1)c1cc(-c2ccccc2)n[nH]1 | inactive: 20.4%
84 | COc1ccc(SCc2cc(=O)c3ccc(C)c(C)c3[nH]2)cc1 | inactive: -10.2%
